# Reference: PubChem BioAssay AID1508642 (National Center for Advancing Translational Sciences (NCATS), 2021)
# About 200 (0.47%) of roughly 43,000 compounds were called active. About 12% were inconclusive and are not listed. Calls come from the whole dose curve; as a rule, active = well fitted cell-killing curve with a large enough effect; inconclusive = small, poorly fitted or top-dose-only effect, or effect the other way; inactive = flat fitted curve, though single readings scatter. The list shows a part of the results.
# Assay: Cell viability qHTS assay in S16 Pmp22-F2sN cells; note: nearly all actives have a fitted effect of over 65% in size
# Settings: S16 Pmp22-F2sN Schwann cells (luciferase reporters placed in the Pmp22 gene) viability, CellTiter-Glo, 24 h; series mostly up to 57.5 µM; activity change, negative = cytotoxicity: at the top concentration
# Method in brief: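 Luminescence from CellTiter-Glo, read by CCD camera after a 15 min room-temperature incubation, served as the viability signal. Reporter Schwann cells (S16 Pmp22-F2sN) had been treated with pin-transferred compounds for 24 h at 37C.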
# % is set by controls: 0 for no effect and ±100 for the full control effect; potency is the fitted concentration of half-maximal effect.
SMILES,"activity change, negative = cytotoxicity",Potency
COC(=O)c1ccc(Nc2nc(-c3ccc(C)cc3)nc3ccccc23)cc1,inactive: 2.01%,–
CC(=O)N1CCc2c(sc3c2c(=O)n(Cc2ccccc2)c(=O)n3Cc2cccc(Cl)c2)C1,inactive: -13.9%,–
COc1cc(-c2noc(-c3ccc(N4CCCC4)c([N+](=O)[O-])c3)n2)cc(OC)c1OC,inactive: 3.22%,–
Cc1ccc(-n2nc(C(=O)NCc3ccc(F)cc3Cl)c3c4ccccc4n(C)c3c2=O)cc1,inactive: -2.46%,–
FC(F)(F)c1ccc2c(c1)ncc1c(-c3ccccc3)nn(-c3ccccc3)c12,inactive: 0.89%,–
CCN(CC)C(=O)Cn1ncc2c([nH]c3ccc(C)cc32)c1=O,inactive: 6.9%,–
COc1ccc(NC(=O)c2ccc3c(c2)N(Cc2cccc(Cl)c2)C(=O)c2ccccc2S3(=O)=O)cc1Cl,inactive: -0.205%,–
COc1ccccc1-c1noc(-c2ccc(NCc3ccccc3)c([N+](=O)[O-])c2)n1,inactive: 9.61%,–
Cc1cc2nc(NC(=O)c3ccc(S(=O)(=O)N4CCOCC4)cc3)sc2cc1C,inactive: 2.56%,–
Cc1ccc(C)c(NC(=O)CCc2nc3cccnc3n2Cc2cccs2)c1,inactive: -2.51%,–
CCN(CC)C(=O)CSc1nc(-c2ccccc2)cc(-c2ccc(OC)cc2)c1C#N,inactive: 0.0396%,–
COc1cccc(NC(=O)Cn2c(=O)n(-c3ccccc3)c(=O)c3c4c(sc32)CCCC4)c1,inactive: -5.79%,–
Cc1ccccc1-c1ccnc2c(-c3ccc(F)cc3)c(C)nn12,inactive: 7.04%,–
Cc1ccc(-c2cc(N)n(Cc3cccc(Cl)c3)n2)cc1,inactive: -8.59%,–
CCOC(=O)c1sc2ccccc2c1S(=O)(=O)N1CCN(c2ccccc2F)CC1,inactive: -15.7%,–
COc1cc(OC)c(NC(=O)Cn2nc(C)n3cccc3c2=O)cc1Cl,inactive: 7.78%,–
CCC(=O)N1CCc2cc(S(=O)(=O)N3CCN(c4ccccc4F)CC3)ccc21,inactive: -1.01%,–
CC1=C(c2cccc(Cl)c2)S(=O)(=O)NC1=NCc1ccccc1C,inactive: 4.9%,–
COc1ccc(C)cc1NC(=O)CN1C(=O)CSc2ccc(S(=O)(=O)N3CCCC3)cc21,inactive: 11.3%,–
CCOc1ccc(NC(=O)Nc2cccc(C)n2)cc1,inactive: 8.3%,–
Cc1ccc(-n2nc3c(N4CCC(C(=O)NCCc5ccccc5)CC4)nnc(C)c3c2C)cc1,–,active: 28.2 µM
COc1ccc(C)cc1NC(=O)CN(C)S(=O)(=O)c1ccc2c(c1)CCCN2C(C)=O,inactive: -0.363%,–
COCCCN1CN=C(NS(=O)(=O)c2ccc(NC(C)=O)cc2)NC1,inactive: 14.1%,–
CCN(CC)S(=O)(=O)c1ccc2c(c1)c(=O)c(C(=O)NCCc1ccc(OC)c(OC)c1)cn2C,inactive: 4.87%,–

SMILES,"activity change, negative = cytotoxicity",Potency
COC(=O)CNC(c1ccccc1)c1cc(Br)ccc1NC(=O)c1ccc(Cl)cc1 (configuration not stated),inactive: 7.19%,–
Cc1nc2ccn(Cc3ccccc3)c(=O)c2cc1C(=O)Nc1ccc(F)cc1Cl,inactive: -2.34%,–
COc1cccc(CN(C(=O)c2oc3ccc(Br)cc3c2C)C2CCS(=O)(=O)C2)c1 (configuration not stated),inactive: 0.127%,–
CC(C)c1ccc(NC(=O)c2ccc3c(c2)CCCN3S(C)(=O)=O)cc1,inactive: -6.93%,–
O=C(Nc1ccc2c(c1)CCCN2C(=O)c1cccs1)c1c(F)cccc1F,inactive: -2.81%,–
Cc1ccc(N2CC(NC(=O)c3ccc(S(=O)(=O)N4CCCC4)cc3)CC2=O)cc1 (configuration not stated),inactive: -3.48%,–
COc1ccc(-c2c(C)c3cc(OC(=O)N4CCOCC4)ccc3oc2=O)cc1,inactive: -5.41%,–
CCOc1ccccc1NC(=O)Cn1c(=O)n(CCCC(=O)NCCc2ccc(C)cc2)c(=O)c2ccccc21,inactive: -7.27%,–
CCc1ccc(CNC(=O)CN(c2ccc(C)cc2)S(=O)(=O)N(C)C)cc1,inactive: -0.622%,–
COc1ccc(OC)c(CCNC(=O)C2CCN(c3ncnc4c3nc3n4CCCCC3)CC2)c1,inactive: -3.03%,–
CSc1ccc(CNC(=O)C2CCN(c3nnc(-n4cccc4CNc4ccc(C)cc4)s3)CC2)cc1,inactive: -15%,–
N#Cc1c(-n2ncnc2-c2ccc(Br)cc2)sc2c1CCCCC2,inactive: 13.1%,–
O=C(Cn1cc(SCc2ccccc2)c2ccccc21)N1CCCCC1,inactive: -1.99%,–
COc1ccc(-c2nc(C)c(CCNC(=O)C(=O)Nc3c(C)cccc3C)s2)cc1OC,inactive: 23%,–
Oc1c(C(c2ccccc2F)N2CCCCC2)sc2nc(-c3ccco3)nn12 (configuration not stated),inactive: 4.12%,–
CC(=O)c1cccc(NC(=O)CSc2nc(=O)n(Cc3cccnc3)c3c2CCC3)c1,inactive: 1.75%,–
Nc1cc(=O)nc(SCC(=O)Nc2ccc(F)cc2)n1-c1ccccc1Cl,inactive: -4.08%,–
COc1ccc(C)cc1NC(=O)C1CCN(S(=O)(=O)c2ccc3[nH]c4c(c3c2)CCCCC4)CC1,inactive: -0.527%,–
O=C(COc1ccc([N+](=O)[O-])cc1)NCC1(N2CCOCC2)CCCCC1,inactive: 10.4%,–
Cc1ccccc1Nc1c(-c2ccc(Cl)s2)nc2c(C)cccn12,inactive: -4.6%,–
COc1ccc(-n2ncc(C(=O)N3CCN(c4ncccn4)CC3)c2C2CCN(C(=O)OC(C)(C)C)CC2)cc1,inactive: 7.1%,–
CC(C)CC(=O)Nc1ccc(S(=O)(=O)Nc2cc3c(cc2N2CCOCC2)n(C)c(=O)c(=O)n3C)cc1,inactive: 7.29%,–
O=C(CCc1cn(Cc2ccccc2Cl)c2ccccc12)NC1CCCCC1,inactive: -14.6%,–
